Laboratory results as given in patent US10130714B2 (priority 2012, dated 2018).

Settings: rat plasma, 37° C., 24 h, 1 mM, MALDI-TOFMS and LC-QTOFMS
Description: The ester bonds could be hydrolyzed by endogenous esterases in the blood, liver and kidney.
Sprague Dawley® rat plasma (550 μL) and 50 μL of analyte were mixed to yield a final concentration of 1 mM. The mixture was incubated at 37° C. for 24 h, extracted with methanol (3.6 mL) by vortex mixing at 4° C. for 2H, and then subjected to centrifugation at 10,000 rpm for 20 min. The precipitate was removed by filtration. The filtrate was concentrated under reduced pressure, and the content of enzymatic cleavage products was analyzed by MALDI-TOFMS.
Alternatively, the mixture resulted from incubation was subjected to LC-QTOF MS analysis. The sample was loaded onto a Sep-Pak® Plus tC18 cartridge (Waters Corp), and flushed with deionized water (2×2 mL) to remove excess salts and proteins, followed by elution with MeOH/H2O (1:1, 4×2 mL) to collect analyte. The analyte was evaporated to dryness, and re-dissolved in CH3CN/H2O (1:9, 100 μL) for LC-QTOF MS analysis on a nano Acquity UPLC BEH C18 column (1.7 μm, 75 μm×250 mm, Waters Corp). The injection volume was 2-5 μL and the total run time was 50 min. A mixture of 0.1% formic acid in water (mobile phase A) and 0.1% formic acid in acetonitrile (mobile phase B) was used with a gradient program at a flow rate of 0.3 μL/min at ambient temperature.

| SMILES | stability / enzymatic cleavage in plasma |
| --- | --- |
| CC(=O)NC1C(NC(=N)N)C=C(C(=O)OCCCOC(=O)C=Cc2ccc(O)c(O)c2)OC1C(O)C(O)CO (stereo not drawn) [ZA-1-CA (9)] | cleaved by plasma esterases |
| CC(=O)NC1C(N=C(N)N)C=C(C(=O)OCCCOC(=O)c2ccc3ccccc3c2O)OC1C(O)C(O)CO (stereo not drawn) [ZA-1-HNAP (12)] | gave the expected degradative products |
| CC(=O)NC1C(NC(=N)N)C=C(C(=O)O)OC1C(OC(=O)NCCCNC(=O)C=Cc1ccc(O)c(O)c1)C(O)CO (stereo not drawn) [ZA-7-CA-amide (7)] | relatively stable in plasma |
